Some of the results follow.

From the supplement of paper PMC11417369 come the findings set out here.

The experiment relates to PfHDP1 homeodomain (GST-tagged). Put plainly: gcPBM binding intensity (ln(normalized median fluorescence intensity)); higher = stronger DNA binding. The method, boiled down:
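GST-tagged P. falciparum DNA-binding domains produced in E. coli were incubated for 1 h on an Agilent 4 × 180k array of primer-extended double-stranded 36-bp intergenic genomic probes with negative controls. Binding intensity is the highest Masliner-normalised natural-log median intensity across replicate spots of either probe orientation, with bound protein detected by Alexa488 anti-GST antibody at 488 nm.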
Take ACATTGTTGGTGTTAGTGCATTGGTAAATATTATAT: the “gcPBM binding intensity (ln)” value was determined as 8.23. “ATAGTATATCAAAATTTGTAAATCATTCTCAATAAA [CACACA_negctrl_site430]”: the “gcPBM binding intensity (ln)” value stood at 5.94.

Consider “AAAAAAAAAATTTTCGTGCACATAAGAAAATTTAAA [GTGCAC_site9788]”, for which the “gcPBM binding intensity (ln)” value came to 9.87. For the sequence “TATATATTATATATTTGTACATATATATAAAAACTT [XGTACX_site449]”, the “gcPBM binding intensity (ln)” value was 6.54. Regarding “CCTTCCTTGAATTTTACATGCAAAAAATTATAAAAC [TGCATGCA_site663]”, the “gcPBM binding intensity (ln)” value is 6.88. As to “TTTTTTCAATATTATATCCAAAAATATTTGTAAATA [TGCATGCA_negctrl_site596]”, the “gcPBM binding intensity (ln)” value was 5.71. Take “TTATTAAAATATACATTTGAAAGTAATCTTATTTAA [XGTACX_negctrl_site431]”: the “gcPBM binding intensity (ln)” value was 6.11. Regarding “TATAAAAAAATAATAAAATAATAAAATATATAAATA [TGCATGCA_negctrl_site394]”, the “gcPBM binding intensity (ln)” value worked out at 6.28. The figure for “ATTCTATTATCCTTTGCACACAAAATAAATGAAAAA [CACACA_site3030]” is 9.63; for “TTTTAAAAGGTAAAATGTACATATATAATATATACA [XGTACX_site1222]” it is 6.22. With “TATTTTACATAAAAGAAAAAAAAAAAAAAAAAAAAA [CACACA_negctrl_site1460]”, the “gcPBM binding intensity (ln)” value turned out to be 6.13. Consider “ATATTGAAAATTTGAAGTACATCTAAATATATTATT [XGTACX_site7817]”, for which the “gcPBM binding intensity (ln)” value turned out to be 6.24.

As to “TTTATAATAAAAAATACATGCAGTTATATATAATAA [TGCATGCA_site654]”, the “gcPBM binding intensity (ln)” value was 6.75. With “ATAATGTGTTTGGTATTCTTGATAGATAGTTTTGTG [CACACA_negctrl_site68]”, the “gcPBM binding intensity (ln)” value was 6.66. As to “ATCCGTGTCTGAAATACACACATGACAATGTGAATG [CACACA_site6556]”, the “gcPBM binding intensity (ln)” value is 6.45. With “TATATATAAATAAACACACACAAATATAATAAAAAA [CACACA_site3526]”, the “gcPBM binding intensity (ln)” value turned out to be 6.99. Regarding “TATTTAAATACTGACGCATGCATAAGGAGTAATAGT [TGCATGCA_site465]”, the “gcPBM binding intensity (ln)” value came to 7.62.

For the sequence “AAACATTTATGAAGGTGTACAAAAATGAATTAAAAA [XGTACX_site7035]”, the “gcPBM binding intensity (ln)” value came to 6.55. As to “TTTTGTTTAGTGTATTGTACAATATATCTTTATTTT [XGTACX_site5163]”, the “gcPBM binding intensity (ln)” value is 6.52. Turning to “AGTCCTTACACATATATTAAATATGTGTATATATAT [XGTACX_negctrl_site336]”, the “gcPBM binding intensity (ln)” value stood at 7.17. In the case of “TATTAATACGGACACACACACACACTAGATAAAATA [CACACA_site4295]”, the “gcPBM binding intensity (ln)” value is 7.02.

As for “AAAAAAAAAAAAAAAAGTACATATATATATATAATT [XGTACX_site4437]”, the “gcPBM binding intensity (ln)” value turned out to be 6.1. With “TAATACTTAGAGAAAAGTACGTATGAACTTATGTAA [XGTACX_site5504]”, the “gcPBM binding intensity (ln)” value stood at 6.24. As for “TTTTTTTTTTTTTTTTGTACTTATAAAATAACATGT [XGTACX_site134]”, the “gcPBM binding intensity (ln)” value stood at 6.18. As to “TTTTAAAGCATATCATATAAAGAACATGACATAGGA [CACACA_negctrl_site630]”, the “gcPBM binding intensity (ln)” value was 6.27. On to “AACATTTTTAAATATATAAAAATATATATATATATA [XGTACX_negctrl_site551]”, for which the “gcPBM binding intensity (ln)” value was determined as 9.

Regarding “TTATATTTATGATACACACACGTATATTCACATACA [CACACA_site6354]”, the “gcPBM binding intensity (ln)” value was determined as 6.81. The figure for “GTATGTTTAATTTTAGTGCAATTATAAATATTTTAA [GTGCAC_site9531]” is 9.52.

“AAGAAAATAAAATAAAAAAAAAAATAAAAAAAATAA [TGCATGCA_negctrl_site516]”: the “gcPBM binding intensity (ln)” value is 6.18. For “TCAATAGTTACTAGTACATGCAAAAATAAACCTATA [TGCATGCA_site85]”, the “gcPBM binding intensity (ln)” value is 6.88. To “CAAATATATATGTTCACACATATAATTATTGTGAAA [CACACA_site4190]” belongs 6.4; to “TTGCCATTAATTTATACACACACATTTTAATTTTTT [CACACA_site8150]”, 6.97; to “TTGTCATTTATAAAATGTACGTGTGTATATATTTAA [XGTACX_site5000]”, 6.78. To “TACATTTTTATTTTTACACACATATATATATATATA [CACACA_site1021]” belongs 9.47.

Regarding “CTATTAAAAAAATTATGTACACAACGTCTCTATATA [XGTACX_site4813]”, the “gcPBM binding intensity (ln)” value was determined as 6.66. To “TTAAGTATTTTACGTACACACTTATAAATGTACAGG [CACACA_site6012]” belongs 6.39; to “AAGTATTATTATAAGACACACATGTATATAAGTATA [CACACA_site1479]”, 6.53; to “TATAATATATTTATATGTACTTATTTATTTATATAT [XGTACX_site6519]”, 6.43.

For the sequence “GAGTTTATTCTTTTTATACACACCTTATTTGATTAA [CACACA_site735]”, the “gcPBM binding intensity (ln)” value was 6.85. For the sequence “TATTATTTTATGAGACATAAAAAAAAAAAAAAAAAA [CACACA_negctrl_site1534]”, the “gcPBM binding intensity (ln)” value worked out at 6.17. To ATATATATATATATAGTGCATAATGTTTTAATAGAT belongs 9.73; to “AAATTGTCTGCATATAGTACATAAATATATTAATAT [XGTACX_site4557]”, 6.55; to “TCTTTATATATATATATATGTGTGAATGTTAAGTAT [XGTACX_negctrl_site135]”, 6.97. Take “ATTTTTTTTTTTTCCTTACACACATATTTCATTTTA [CACACA_site748]”: the “gcPBM binding intensity (ln)” value stood at 6.87. For the sequence “AGTAAAAGAAAGCACACACACATGTATATATGTATG [CACACA_site3858]”, the “gcPBM binding intensity (ln)” value stood at 6.47.

As to “CAATATAAAAAACACACGCACACAAAAAAAAAAAAA [CACACA_site3521]”, the “gcPBM binding intensity (ln)” value is 6.56. The figure for “GTAATATTATATAGTTGTACTTTTTTTTTATTATAT [XGTACX_site483]” is 6.76; for “ATATATAAAATATATTGTACATTAACATATATATTT [XGTACX_site2055]” it is 6.34; for ATATATAAATAAATAGTGCATTTTAATATTTAACGT it is 8.86. Turning to “AAACTTGACGGACACACACACACATATATAAAAAAA [CACACA_site4577]”, the “gcPBM binding intensity (ln)” value was 6.87. In the case of “TAATCCATAAGAAGCACACACATATAAATATATTTT [CACACA_site6774]”, the “gcPBM binding intensity (ln)” value was 6.63. “TTTAAATATTTTAACACACTCATATTTAGGTTACAA [CACACA_site5685]”: the “gcPBM binding intensity (ln)” value is 6.5. For the sequence “TCCATATATATTATGTGTACATATTATATATATAAA [XGTACX_site7525]”, the “gcPBM binding intensity (ln)” value was 6.46. Take “TTTACATATTTATATACACACTTTTGCGTGTCTGGT [CACACA_site4750]”: the “gcPBM binding intensity (ln)” value is 6.6. Regarding “TAGTACACACAAAATACATGCGGGGTTTAATATTTA [TGCATGCA_site576]”, the “gcPBM binding intensity (ln)” value stood at 6.96. Regarding “AATTCTTTCATATATTGTACGTATTCCCATAAAATA [XGTACX_site5923]”, the “gcPBM binding intensity (ln)” value was 6.95.
